Assay results: US20240400722A1 (MILTENYI BIOTEC B V, published 2024)

Target: T1, His tag-acVHH-WT anti-caffeine nanobody, soluble
T1 construct: Expressed in E. coli; also called AB0; not shown: His tag
Experiment: yeast surface display; 400 nM soluble partner, rising caffeine

- binding result: binds
B1: acVHH-WT displayed on yeast (Aga2p-HA-tag-(Gly4Ser)3 linker-acVHH-WT-c-myc tag) (VHH)
chain: [about 60 residues not given here]KDNSSTIEGRYPYDVPDYALQASGGGGSGGGGSGGGGSASQVQLVESGGGLVQAGGSLRLSCTASGRTGTIYSMAWFRQAPGKEREFLATVGWSSGITYYMDSVKGRFTISRDKGKNTVYLQMDSLKPEDTAVYYCTATRAYSVGYDYWGQGTQVTVSSGSEQKLISEEDL
notes: Yeast surface display fusion on S. cerevisiae EBY100
